Hit rate of the full screen: of about 420,000 compounds, about 64,000 (15%) were called active. The shares of active, inactive and inconclusive entries below differ from those in the screen. Calls follow the shape of the dose curve; as a rule, active = well fitted inhibition curve with a large enough effect; inconclusive = small, poorly fitted or top-dose-only effect; inactive = flat fitted curve, though single readings scatter. Potencies of inconclusive entries are left out as doubtful fits.
Test: qHTS for Inhibitors of human tyrosyl-DNA phosphodiesterase 1 (TDP1): qHTS in cells in absence of CPT; also: nearly all actives have a fitted effect of over 55% in size
Conditions: DT40 Tdp1-/- hTDP1 cells, no CPT, ATP luminescence, 48 h; activity change, negative = growth inhibition: at 46.2 µM (top of the series) unless noted
In short: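 Growth kinetics read by CellTiter-Glo luminescence after ≥48 hr at 37 °C. Cells: DT40 Tdp1-/- stably carrying human TDP1, 400 per well, compound exposure in the absence of CPT (DMSO vehicle).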
% is scaled to controls: 0 for no effect and ±100 for the full control effect; potency is read from the fitted curve at half-maximal effect; tags tell the direction and shape of the fitted curve.

Row | Compound | activity change, negative = growth inhibition | Potency
1 | CCC(CC)c1nnc(NC(=O)C2CC(=O)N(c3ccc4c(c3)OCCO4)C2)s1 (stereo unspecified) | inconclusive: -32.3% [inhibitor] | 
2 | CCN(CC(=O)NCc1ccc(Cl)cc1)C(=O)c1cc(S(=O)(=O)NCc2ccccc2)ccc1C |  | active: 20.6 µM
3 | CCCN(CCC)S(=O)(=O)c1ccc(C(=O)Nc2nnc(COC)o2)cc1 |  | inconclusive [inhibitor, single point]
4 | CCCCCCCCC(=O)N/N=C/c1ccccn1 |  | inconclusive [inhibitor, single point]
5 | CN(C)C(=O)c1ccc(-c2cncnc2Nc2ccccc2)cc1 |  | inactive
6 | O=C(O/N=C1/CCCc2occc21)c1ccc(F)cc1 |  | inconclusive [inhibitor, single point]
7 | O=C(C[C@@H]1C[C@H]2c3cc(NC(=O)c4cccnc4)ccc3O[C@H]2[C@H](CO)O1)NCc1ccc(Oc2ccccc2)cc1 |  | active: 5.8 µM
8 | Cc1ccc(NC(=O)CCC(=O)N2CCSc3ccccc32)cc1Cl |  | inconclusive [inhibitor, single point]
9 | COc1cc(C(=S)N2CCOCC2)cc(OC)c1OC(=O)c1ccc(C)cc1 |  | inactive
10 | CCC(C(=O)Nc1cc(F)ccc1F)n1nc(-c2cc(C)ccc2C)ccc1=O (stereo unspecified) |  | inconclusive [inhibitor, single point]
11 | CN(CC(=O)Nc1ccc(Cl)c(C(F)(F)F)c1)S(=O)(=O)c1cnc[nH]1 |  | active: 14.6 µM
12 | CCOC(=O)N1CCc2c(sc3c2c(=O)n(Cc2ccccc2)c(=O)n3CC(=O)Nc2ccc(C)c(C)c2)C1 |  | inactive
13 | Cc1nc2cc(C(=O)OCC(=O)NC(C)C(C)C)ccc2n1-c1ccccc1 (stereo unspecified) |  | inconclusive [inhibitor, single point]
14 | COc1ccc(S(=O)(=O)N2CCCC2)cc1OC | inconclusive: -52.9% [inhibitor] | 
15 | N#C/C(=C\c1cccc([N+](=O)[O-])c1)C(=O)NCc1ccc(Cl)cc1 |  | active: 11.6 µM
16 | O=C(CSc1nnc(CCCN2C(=O)c3cccc4cccc(c34)C2=O)n1-c1ccccc1)NCCCO |  | inconclusive [inhibitor, single point]
17 | CC1=C(C(=O)OCc2ccccc2)C(c2ccccc2-c2ccccc2)NC(=O)N1CCCCCC(=O)O (stereo unspecified) |  | inconclusive [inhibitor, single point]
18 | Cc1ccc(C)c(Cn2nnc3c(=O)[nH]c(C4CCN(C(=O)c5ccco5)CC4)nc32)c1 |  | inconclusive [inhibitor, single point]
19 | Cc1ccc(NC(=O)CN(C)C(=O)C2COc3ccccc3O2)cc1 (stereo unspecified) |  | inconclusive [inhibitor, single point]
20 | Cc1ccc(S(=O)(=O)NCCCn2ccnc2)cc1C(=O)NC(C)C |  | inactive
21 | COc1ccc2c(c1)O/C(=C\c1ccccc1O)C2=O | inconclusive: -30% [inhibitor] | 
22 | COC(=O)C1C2CC3c4[nH]c5cc(OC)ccc5c4CCN3CC2CC(OC(=O)CC(C)=O)C1OC (stereo unspecified) |  | inconclusive [inhibitor, single point]
23 | O=c1[nH]c(C2CCN(S(=O)(=O)c3ccccc3F)CC2)nc2c1nnn2Cc1ccc2c(c1)OCCO2 |  | inactive
24 | N#Cc1ccc(C2=CC(=O)C[C@H](c3ccc4c(c3)OCO4)C2)cc1 |  | inconclusive [inhibitor, partial curve, poor fit]

Row | Compound | activity change, negative = growth inhibition | Potency
25 | COc1ccccc1OCC(=O)Nc1ccccc1C(=O)NCc1ccco1 |  | inconclusive [inhibitor, partial curve]
26 | Cc1cc(Cl)ccc1C(=O)C1CCCN(C(=O)/C=C/c2cnn(C)c2)C1 (stereo unspecified) |  | inconclusive [inhibitor, single point]
27 | Cc1ccc2nc(-c3cccc(Cl)c3)c(Cc3ccccc3)n2c1 |  | active: 16.4 µM
28 | O=C(Cc1cc(=O)oc2cc(O)ccc12)NC(Cc1ccc(Cl)cc1)C(=O)O (stereo unspecified) |  | inconclusive [inhibitor, single point]
29 | COc1ccc(C2=NN(CN3C(=O)C(=O)c4ccccc43)C(c3cccc([N+](=O)[O-])c3)C2)cc1 (stereo unspecified) |  | inconclusive [inhibitor, single point]
30 | CC(C)CNc1nc(=S)nc(N(C)C)[nH]1 |  | inactive
31 | CSc1nnc(CNC(=O)/C=C/c2ccccc2Cl)n1-c1ccc(F)cc1 |  | inconclusive [inhibitor, single point]
32 | Cc1ccc(-c2nn(-c3cccc(F)c3)cc2CNCCc2ccncc2)o1 |  | inconclusive [inhibitor, single point]
33 | Cn1c(=O)c2c(nc(Oc3ccccc3)n2Cc2c(Cl)cccc2Cl)n(C)c1=O |  | inactive
34 | COc1ccc(OC)c(CN2CCCC(n3cc(C(=O)N4CCCCC4)nn3)C2)c1 (stereo unspecified) |  | inactive
35 | O=c1cc(-c2ccc3c(c2)OCO3)oc2ccccc12 |  | inactive
36 | CCOC(=O)c1c(SCCN2CCCCC2)n(-c2ccccc2)c(=S)n(-c2ccccc2)c1=O |  | active: 4.11 µM
37 | O=C(COc1ccccc1[N+](=O)[O-])Nc1cccc(-c2nc3ccccc3s2)c1 |  | inconclusive [inhibitor, partial curve, poor fit]
38 | CCN(CC)c1nc(C(F)(F)F)nc2c1nnn2Cc1ccccc1 |  | inactive
39 | CC1CCCN(C(=O)CN2C(=O)NC(C)(c3ccc4ccccc4c3)C2=O)C1 (stereo unspecified) |  | inconclusive [inhibitor, single point]
40 | NCCCC(=O)N1c2ccccc2Sc2ccccc21 |  | inconclusive [inhibitor, single point]
41 | CC(C)[C@H](NC(=O)OCc1ccccc1)C(=O)OCC(=O)Nc1ccc(N2CCOCC2)cc1 |  | inconclusive [inhibitor, single point]
42 | COc1ccc(Cc2nnc(NC(=O)C(C)C)s2)cc1 |  | inconclusive [inhibitor, partial curve, poor fit]
43 | O=C(CN1CCN(C(=O)c2ccco2)CC1)Nc1ccccc1-c1ccccc1 |  | inconclusive [inhibitor, single point]
44 | Cc1ccc2c(c1)c1c3n2CCN(C(=O)CCl)C3CCC1 (stereo unspecified) |  | active: 3.26 µM
45 | CCNC(=O)NC(=O)COC(=O)C1CSC2(C)CCC(=O)N12 (stereo unspecified) |  | inactive
46 | COc1cc(NC(=O)CSc2nc3nc(C)c(Cc4ccc(C)cc4)c(C)n3n2)cc(OC)c1OC |  | active: 10.3 µM
47 | CCOc1ccc(NC(=O)CN2C(=O)COc3ccc(S(=O)(=O)NC4CCCC4)cc32)cc1 |  | inconclusive [inhibitor, single point]
48 | CC(C)[C@H](NS(=O)(=O)c1cccc(Cl)c1)C(=O)OCC(=O)N1CCN(c2ccccc2)CC1 |  | active: 25.9 µM

Row | Compound | activity change, negative = growth inhibition | Potency
49 | CC1SC(c2ccc(Cl)cc2Cl)NC1=O (stereo unspecified) |  | inconclusive [inhibitor, single point]
50 | CCOc1ccc(Nc2nc3cc(S(=O)(=O)N(CC)CC)ccc3o2)cc1 |  | active: 7.31 µM
51 | CN(NC1OC(=O)c2ccccc21)c1ncc(C(F)(F)F)cc1Cl (stereo unspecified) |  | inconclusive [inhibitor, single point]
52 | Cc1ccc(OC(=O)COc2ccccc2)c(-n2nc3ccccc3n2)c1 |  | inactive
53 | CCCCN(C)CCNC(=S)Nc1ccc2nc(N3CCN(CC)CC3)cc(C)c2c1 |  | inconclusive [inhibitor, partial curve, poor fit]
54 | CCN(CC(=O)Nc1ccccc1OC)C(=O)c1cc(S(=O)(=O)N2CCCCCC2)ccc1OC |  | active: 11.6 µM
55 | O=[N+]([O-])c1ccccc1S(=O)(=O)N1CCN(c2ccccn2)CC1 |  | inactive
56 | CCCCCc1c(-c2cccc(OC)c2)ncn1CCc1ccccc1OC |  | active: 7.31 µM
57 | CN(Cc1c(F)cccc1Cl)C(=O)c1cccc(S(=O)(=O)NCc2ccccc2)c1 |  | active: 18.4 µM
58 | CSc1ccc(S(=O)(=O)NCC(=O)OCC(=O)N2CCCC2=O)cc1[N+](=O)[O-] |  | inconclusive [inhibitor, single point]
59 | CCOc1ccc(NC(=O)N2CCC(c3nc4ccccc4o3)CC2)cc1 |  | inconclusive [inhibitor, single point]
60 | O=C(CSc1nnc(CNC(=O)c2ccccc2)o1)NCCc1ccccc1 |  | inactive
61 | Cc1ccc(-c2ccc(CCC(=O)O)n2-c2ccc(C(=O)O)cc2)cc1 |  | inactive
62 | O=C1NC(c2ccccc2)=NC1(Nc1ccccn1)C(F)(F)F (stereo unspecified) |  | inactive
63 | Cc1[nH]c2ccccc2c1SCCN |  | inconclusive [inhibitor, single point]
64 | CCN(c1ccccc1)S(=O)(=O)c1ccc(C(=O)N(CCCN(C)C)c2nc3cc4c(cc3s2)OCO4)cc1 |  | inconclusive [inhibitor, single point]
65 | O=C(CN1C(=O)NC2(CCc3ccccc32)C1=O)Nc1ccc(Br)cc1F (stereo unspecified) |  | inactive
66 | COc1cccc(/C(C)=N/N=C(\C)c2cccc(OC)c2)c1 |  | inactive
67 | COc1ccc(N2CCN(C(=O)C3CCN(C(=O)c4cccc(Cl)c4)CC3)CC2)cc1 |  | inconclusive [inhibitor, partial curve]
68 | O=C(CCS(=O)(=O)c1ccccc1)Nc1ncc([N+](=O)[O-])s1 |  | active: 10.3 µM
69 | CC(=O)Oc1ccc(-c2cccc(C(=O)OCC(=O)N(C)c3ccccc3)c2)cc1 |  | active: 23.1 µM
70 | O=C(Nc1c(C(=O)O)oc2ccccc12)c1ccc(C(F)(F)F)cc1 |  | inconclusive [inhibitor, single point]
71 | COc1ccccc1NC(=O)C1CCCN1S(=O)(=O)c1ccc(Cl)cc1 (stereo unspecified) |  | active: 16.4 µM

Reference: PubChem BioAssay AID686978 (National Center for Advancing Translational Sciences (NCATS), 2013)
